# PubChem BioAssay AID504706 (National Center for Advancing Translational Sciences (NCATS), 2011)
# Among all 320,000 compounds or so, about 200 (0.062%) were called active. Inconclusive results, whose numbers are uncertain, are shown with a selection of clear calls. The call rests on the fitted dose curve; in most records, active means well fitted activation curve with a large enough effect; inconclusive means small, poorly fitted or top-dose-only effect; inactive means no such curve, though single readings can be large or run the other way. No potency is given beside an inconclusive call; the fits are too rough.
# Experiment: qHTS assay for re-activators of p53 using a Luc reporter; further: nearly all actives have a fitted effect of over 45% in size
# Settings: H1299 p53-A138V BP100-luciferase reporter, luminescence, 24 h; series mostly up to 92.2 µM
# In short: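 p53-null H1299 cells stably carrying temperature-sensitive p53-A138V and a BP100-luciferase reporter were pinned with compounds (4-point, 1:5 series) and held 24 hrs at 37 deg C. Luminescence was read 10 min after detection reagent.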
# Potency means the concentration at half of the fitted maximal effect; tags describe the fitted curve by direction and shape.
row,SMILES,Potency
1,CCCc1c(O)nc(SCCN(CC)CC)n(C(=O)c2ccccc2)c1=O,"inconclusive [activator, single point]"
2,O=C(CSc1nnc(-c2ccc(Cl)s2)o1)N1CCOCC1,"inconclusive [activator, partial curve, poor fit]"
3,Cc1ccccc1Cn1ccc(NC(=O)c2onc(C)c2Cl)n1,"inconclusive [activator, partial curve, poor fit]"
4,Oc1ccccc1-c1cc(-c2ccc(F)cc2)n[nH]1,"inconclusive [activator, partial curve, poor fit]"
5,Cc1ccc(-c2cc(-c3ccc(F)cc3)n[nH]2)c(O)c1,"inconclusive [activator, partial curve, poor fit]"
6,O=C(CSc1nc2ccccc2n1S(=O)(=O)c1cccc([N+](=O)[O-])c1)NCc1cccs1,"inconclusive [activator, full curve, poor fit]"
7,NNc1nc(Nc2ccc([N+](=O)[O-])cc2)nc(N2CCCCCC2)n1,"inconclusive [activator, single point]"
8,CC(C)CC1NC(=O)c2ccccc2-n2c1nc1cc(F)ccc1c2=O (centres undefined),"inconclusive [activator, single point]"
9,O=C(COC(=O)CNC(=O)c1ccc(Cl)cc1Cl)NC1CC1,"inconclusive [activator, single point]"
10,CC(C)NC(=O)NC(=O)CSc1nnc(COc2ccccc2F)n1C(C)C1CC2CCC1C2 (centres undefined),inactive
11,COC(=O)c1ccc(NC(=O)Nc2ccc(F)cc2)cc1,"inconclusive [activator, partial curve, poor fit]"
12,O=C(CN1CCCCC1)Nc1nc(-c2ccc(F)c(F)c2)cs1,"inconclusive [activator, partial curve, poor fit]"
13,Cc1ccccc1-c1noc(-c2ccccc2F)n1,"inconclusive [activator, partial curve, poor fit]"
14,COc1ccc(NC(=O)/C=C/c2cccc(C(F)(F)F)c2)cn1,inactive
15,CN(CC(=O)NC(=O)NC1CCCCC1)CC(=O)Nc1ccc(OC(F)(F)F)cc1,"inconclusive [activator, single point]"
16,CC(/C=C/c1ccc(N(C)C)cc1)=N\N=C(/N)SC1CC(=O)N(c2ccc(C(=O)O)cc2)C1=O (centres undefined),"inconclusive [activator, full curve, poor fit]"
17,CC(c1ccccc1)C1C(C#N)=C(N)SC(N)=C1C#N (centres undefined),"inconclusive [activator, partial curve, poor fit]"
18,Clc1cnc(N/N=C/c2ccco2)c(Cl)c1,"inconclusive [activator, partial curve, poor fit]"
19,COc1ccc(-n2ncc3c(NCC(C)C)ncnc32)cc1,"inconclusive [activator, partial curve, poor fit]"
20,Nc1ccc(C(=O)Nc2ccco2)cc1,"inconclusive [activator, single point]"
21,O=C(NCCc1cccc(Cl)c1)c1ccc(Cl)c([N+](=O)[O-])c1,"inconclusive [activator, full curve, poor fit]"
22,CCN1CCN(CCCNC(=O)C2CCCN(c3nc4c(C)cc(C)cc4s3)C2)CC1 (centres undefined),"inconclusive [activator, full curve, poor fit]"

row,SMILES,Potency
1,COc1ccc(/C=C/C(=O)c2ccc(Cl)cc2)c(OC)c1,"inconclusive [activator, partial curve, poor fit]"
2,Cc1ccc(NC(=O)CCN2C(=O)c3cccc([N+](=O)[O-])c3C2=O)c(Br)c1,"inconclusive [activator, partial curve, poor fit]"
3,COc1ccc(C(=O)OCC(=O)NCC2CCCCC2)c(OC)c1,inactive
4,CC(CN1CCOCC1)OC(=O)c1ccc2c(c1)OCCO2 (centres undefined),"inconclusive [activator, partial curve, poor fit]"
5,CCN1CCN(c2cc(C)c3cc(NC(=O)c4cncc(Br)c4)ccc3n2)CC1,inactive
6,CCCCNC(=O)CSc1nc2cc3c(cc2c(=O)n1CCCN(CC)CC)OCO3,"inconclusive [activator, full curve, poor fit]"
7,Nc1ccnn1Cc1cccnc1,inactive
8,CCOC(=O)N1CCN(C(=O)CSc2nc3c(c(=O)n2-c2ccccc2OC)SCC3)CC1,inactive
9,Cc1ccccc1NC(=O)Cc1nc(COC(=O)CC(C)c2ccccc2)cs1 (centres undefined),inactive
10,O=C(Nc1nc2ccccc2[nH]1)C1CCN(C(=O)c2ccc(F)cc2)CC1,inactive
11,O=C(NCc1ccncc1)c1ccc(S(=O)(=O)Nc2ccccc2)cc1,inactive
12,CC(=O)Nc1ccc(S(=O)(=O)Nc2c(C)n(C)n(-c3ccccc3)c2=O)cc1,"inconclusive [activator, single point]"
13,Cc1nc2ccc(NC(=O)c3ccc(=O)[nH]c3)cc2s1,inactive
14,COc1cccc2cc(C(N)=O)/c(=N\NC(=O)c3ccccc3)oc12,"inconclusive [activator, full curve, poor fit]"
15,O=C(NCC1CCCN1S(=O)(=O)c1cccs1)c1ccccc1 (centres undefined),inactive
16,O=C(CSc1nccc(=O)[nH]1)Nc1ccc2c(c1)OCCO2,"inconclusive [activator, partial curve, poor fit]"
17,c1ccc(-n2c(-c3ccco3)nnc2-c2ccco2)cc1,inactive
18,CCn1c(C)nc2cc(C(=O)NNS(=O)(=O)c3ccccc3F)ccc21,"inconclusive [activator, single point]"
19,O=C(CN1C(=O)C(=O)N(C2CCCC2)C1=O)Nc1ccc(Cl)cc1C(F)(F)F,inactive
20,CCN(CC)S(=O)(=O)c1ccc(NC2CCN(Cc3ccccc3)CC2)nc1,inactive
21,COc1ccccc1-n1cnnc1SCC(=O)N1CCOCC1,inactive
22,CC(NC(=O)CN1CCCC1)c1ccccc1 (centres undefined),"inconclusive [activator, single point]"
